Reference: the supplement of paper PMC12217912
Some of the results follow. Sequences were assembled here from the parent chain. Values near 0.05 are background.

B1: TEV protease; numbered along this chain (parent)
chain: MGESLFKGPRDYNPISSSICHLTNESDGHTTSLYGIGFGPFIITNKHLFRRNNGTLVVQSLHGVFKVKDTTTLQQHLVDGRDMIIIRMPKDFPPFPQKLKFREPQREERICLVTTNFQTKSMSSMVSDTSCTFPSGDGIFWKHWIQTKDGQCGSPLVSTRDGFIVGIHSASNFTNTNNYFTSVPKNFMELLTNQEAQQWVSGWRLNADSVLWGGHKVFMVKPEEPFQPVKEATQL

Variants of: B1
Experiment: raw area under fraction-flipped curve 0-4 h after induction (AUC4h, not background-subtracted), DNA-recorder readout of cleavage of the substrate (dimensionless); higher = more cleavage of the substrate by the protease variant
Details: temperature: 34 °C; time window: 0-4 h after rhamnose induction
Protocol: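 In vivo DNA recorder in E. coli TOP10(DE3) ΔrhaA at 34 °C. Each TEVp single-site mutant (parent TEVp 0) is paired with a single-site variant of the 7-mer TEVs (canonical ENLYFQ|S). The substrate sits between flexible linkers in a Bxb1-sfGFP-TEVs-SsrA fusion, so cleavage stabilises Bxb1 and speeds flipping of a recombination array, read by NGS. The value is the raw area under the fraction-flipped curve over 0-4 h after rhamnose induction (AUC4h), with ≥20 reads per time point. It is not background-subtracted; inactive controls average about 0.047.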
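Note: Bxb1 expression induced with 0.2% (w/v) L-rhamnose at OD600 near 0.5, cultures sampled hourly, flipped fraction per protease–substrate barcode pair counted by paired-end Illumina sequencing.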

Row | Variant | area with substrate ENLCFQS | area with substrate ENLDFQS | area with substrate ENLFFQS | area with substrate ENLGFQS | area with substrate ENLHFQS | area with substrate ENLIFQS | area with substrate ENLKFQS | area with substrate ENLMFQS | area with substrate ENLNFQS | area with substrate ENLPFQS | area with substrate ENLQFQS | area with substrate ENLRFQS | area with substrate ENLSFQS | area with substrate ENLWFQS | area with substrate ENLEFQS | area with substrate ENLLFQS | area with substrate ENLTFQS | area with substrate ENLVFQS
1 | L77D | 0.0567 | 0.0668 | 0.0634 | 0.0615 | 0.062 | 0.0618 | 0.0652 | 0.0592 | 0.0702 | 0.0649 | 0.0587 | 0.0665 | 0.0799 | 0.0588 | – | – | – | –
2 | T114V | 0.0677 | 0.0592 | 0.0928 | – | – | – | 0.093 | 0.0929 | 0.0708 | 0.052 | – | 0.0411 | 0.0556 | 0.073 | 0.0671 | 0.0583 | 0.0666 | 0.0775
3 | R102Q | 0.0697 | 0.0524 | 0.0543 | 0.0547 | 0.0622 | – | – | – | 0.0464 | 0.0494 | 0.0516 | 0.0433 | 0.0597 | 0.0447 | 0.0959 | 0.0489 | – | –
4 | K66I | 0.0779 | – | 0.0931 | – | 0.0838 | – | – | – | 0.0701 | – | – | – | 0.0733 | 0.0403 | 0.069 | 0.0824 | – | –
5 | I84C | 0.0752 | 0.0513 | – | 0.0587 | 0.0682 | 0.0776 | 0.0844 | – | 0.0603 | – | 0.0844 | – | 0.0696 | 0.0738 | – | – | – | 0.118
6 | N53I | 0.0635 | 0.0514 | 0.0656 | – | 0.062 | – | 0.0679 | – | 0.0589 | 0.0636 | 0.0658 | 0.0647 | 0.0658 | – | 0.0666 | – | – | 0.0647
7 | G35P | 0.0483 | 0.0351 | – | – | – | – | 0.0453 | – | 0.0426 | – | – | 0.0603 | – | – | 0.0505 | – | – | –
8 | G54Y | 0.0731 | – | 0.0617 | 0.0711 | – | – | – | – | 0.0628 | – | 0.0638 | 0.059 | 0.053 | 0.0664 | 0.0607 | – | – | 0.114
9 | K46Q | 0.0602 | 0.0605 | 0.0546 | 0.0633 | – | 0.0636 | 0.0689 | – | 0.0598 | – | – | – | 0.051 | 0.0557 | 0.064 | 0.0709 | – | –
10 | K46H | 0.062 | 0.0677 | – | 0.0625 | 0.0712 | 0.0587 | 0.0672 | – | 0.0625 | 0.0598 | 0.0565 | 0.0435 | 0.0627 | 0.0484 | 0.0545 | 0.0589 | – | 0.061
11 | D69R | 0.0765 | 0.068 | 0.0779 | – | 0.05 | 0.0696 | 0.0757 | – | 0.0669 | 0.0436 | 0.0538 | 0.0693 | 0.0603 | 0.0655 | 0.0543 | – | 0.0596 | 0.0324
12 | N52R | 0.0658 | – | 0.0522 | – | 0.0555 | – | 0.0602 | 0.0661 | 0.0686 | – | 0.0639 | – | 0.0645 | – | 0.0432 | – | – | –
13 | T30G | 0.0649 | 0.0508 | 0.0733 | 0.0813 | 0.054 | 0.0786 | 0.0691 | 0.0512 | 0.0603 | 0.0568 | 0.0522 | – | 0.0572 | 0.0693 | – | 0.0703 | – | 0.0698
14 | H62M | 0.0576 | 0.0989 | 0.0857 | – | 0.0861 | 0.0853 | 0.0685 | – | 0.0522 | – | 0.0641 | – | – | 0.0757 | 0.0578 | – | – | –
15 | Y34F | 0.0613 | 0.0568 | 0.0759 | – | 0.0676 | – | 0.0784 | 0.0802 | 0.0777 | 0.0581 | – | – | 0.0631 | 0.0776 | 0.0545 | – | 0.127 | 0.0796
16 | Y34I | 0.0611 | 0.0435 | 0.0775 | – | – | – | – | – | 0.0768 | 0.0642 | – | – | 0.0635 | – | – | – | – | –
17 | M88I | 0.0695 | 0.114 | 0.093 | 0.0928 | – | – | – | – | 0.0672 | 0.0587 | – | 0.0761 | 0.0512 | – | – | 0.0738 | – | –
18 | H76S | 0.06 | 0.0584 | 0.0888 | – | 0.0638 | 0.0784 | 0.0699 | 0.0616 | 0.0599 | 0.0594 | – | 0.0703 | 0.0325 | 0.0645 | 0.0634 | – | – | –
19 | E107K | 0.0744 | – | 0.0837 | – | 0.0752 | 0.0688 | 0.0731 | 0.0768 | 0.0695 | 0.0707 | 0.0683 | – | 0.0372 | 0.0718 | 0.0578 | – | – | 0.0838
20 | E107N | 0.0812 | 0.0568 | 0.113 | 0.0628 | 0.0419 | 0.104 | 0.0774 | – | 0.0511 | 0.0598 | – | 0.085 | 0.0573 | – | 0.0654 | 0.0729 | – | –
21 | F95G | 0.0585 | 0.06 | 0.0633 | 0.0522 | – | – | – | 0.0579 | – | 0.0714 | – | – | 0.052 | – | 0.0497 | – | 0.0655 | –
22 | H47S | 0.0599 | 0.0723 | 0.0737 | – | 0.052 | 0.0661 | 0.0578 | – | 0.0555 | 0.0633 | – | 0.0595 | 0.0637 | 0.0646 | 0.0598 | 0.0734 | – | 0.0647
23 | I36L | 0.0772 | 0.0577 | 0.08 | – | 0.055 | 0.0904 | 0.0768 | – | 0.0527 | 0.0652 | – | – | 0.0588 | 0.0797 | – | 0.0682 | – | –
24 | I42H | 0.0303 | 0.05 | 0.0587 | 0.044 | 0.0609 | – | 0.0439 | 0.061 | 0.057 | 0.0451 | – | 0.0198 | 0.0556 | 0.0591 | – | 0.0531 | – | 0.0279
25 | E108V | 0.068 | 0.0604 | 0.0739 | 0.0605 | 0.0605 | 0.0692 | 0.063 | – | 0.0606 | 0.0528 | 0.0594 | 0.0759 | 0.0607 | 0.0458 | 0.0635 | 0.0543 | 0.0626 | –
26 | Q97I | 0.0809 | 0.0705 | 0.0437 | 0.0693 | – | – | – | – | 0.0696 | – | – | 0.0794 | – | 0.0666 | – | – | – | –
27 | Q97S | 0.0583 | – | 0.0573 | 0.0872 | 0.0654 | – | 0.0766 | – | 0.0707 | – | – | 0.0718 | – | – | – | – | – | 0.0827
28 | L61K | 0.0736 | 0.051 | – | 0.0626 | 0.0758 | – | 0.0776 | – | 0.0674 | – | – | 0.0507 | 0.0412 | – | 0.0717 | – | – | –
29 | R81E | 0.0561 | 0.0587 | 0.0597 | 0.069 | 0.0617 | 0.0591 | 0.0627 | – | 0.0621 | – | 0.0627 | – | – | – | 0.0615 | 0.0482 | – | –
30 | Q105G | 0.0706 | 0.0651 | 0.0781 | 0.0702 | 0.0721 | 0.0286 | 0.0757 | 0.0733 | 0.0637 | – | 0.0587 | 0.0603 | 0.0664 | – | – | 0.0573 | 0.0771 | –
